# B1: anti-PDL1(mut)/TGFβ Trap: Trap control: TGFβRII portion active, mutated anti-PD-L1; light chain SEQ ID NO: 6, heavy chain SEQ ID NO: 7 (antibody)
# heavy: EVQLLESGGGLVQPGGSLRLSCAASGFTFSMYMMMWVRQAPGKGLEWVSSIYPSGGITFYADSVKGRFTISRDNSKNTLYLQMNSLRAEDTAIYYCARIKLGTVTTVDYWGQGTLVTVSSASTKGPSVFPLAPSSKSTSGGTAALGCLVKDYFPEPVTVSWNSGALTSGVHTFPAVLQSSGLYSLSSVVTVPSSSLGTQTYICNVNHKPSNTKVDKRV[here human IgG1 Fc without letters]GGGGSGGGGSGGGGSGGGGSGIPPHVQKSVNNDMIVTDNNGAVKFPQLCKFCDVRFSTCDNQKSCMSNCSITSICEKPQEVCVAVWRKNDENITLETVCHDPKLPYHDFILEDAASPKCIMKEKKKPGETFFMCSCSSDECNDNIIFSEEYNTSNPD
# light: QSALTQPASVSGSPGQSITISCTGTSSDVGGYNYVSWYQQHPGKAPKLMIYEVSNRPSGVSNRFSGSKSGNTASLTISGLQAEDEADYYCSSYTSSSTYVFGTGTKVTVLGQPKANPTVTLFPPSSEELQANKATLVCLISDFYPGAVTVAWKADGSPVKAGVETTKPSKQSNNKYAASSYLSLTPEQWKSHRSYSCQVTHEGSTVEKTVAPTECS
# Test system: Detroit 562 human pharyngeal carcinoma model
# Assay: Detroit 562 xenograft model
# Type: in vivo
# Details: 25 μg, 76 μg or 228 μg; subcutaneous implantation; FIG. 5
molecule,measurement,value
B1,tumor volume,dose-dependent reduction in tumor volume
